Measured values published in the supplement of paper PMC7125110.
± gives the standard error. This sample is rich in variants without activity.

B1: glmS ribozyme (parent)
chain: AUAAAAGCGCCAGAACUACAGAAAUGUAGUUGACGAGGAGGAGGUUUAUCGAAUUUUCGGCGGAUGCCUCCAAA

Key:
Details in all cases: with glucosamine-6-phosphate
glucosamine-6-phosphate [1] = variants of: B1; test: self-cleavage kobs at 40 uM GlcN6P; higher = faster cleavage; RNA array
Summary of the method: (§1)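 kobs was derived by fitting per-tile medians to one- or two-exponential decays after normalising signals to baseline and to non-cleaving reference variants. Those signals came from barcoded ribozyme variants transcribed in situ by E. coli RNA polymerase on sequenced MiSeq chips, followed through a hybridised Cy3 probe at 37 °C and imaged over ~14 h. Glucosamine-6-phosphate (40 μM to 10 mM) in HEPES/KCl/Mg(OAc)2 buffer was flowed in. Weighted Michaelis–Menten fits across concentrations then gave kcat and KM.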

glucosamine-6-phosphate [2] = variants of: B1; test: self-cleavage kobs at 640 uM GlcN6P; higher = faster cleavage; RNA array
Summary of the method: as §1

glucosamine-6-phosphate [3] = variants of: B1; test: self-cleavage kobs at 160 uM GlcN6P; higher = faster cleavage; RNA array
Summary of the method: as §1

glucosamine-6-phosphate [4] = variants of: B1; test: self-cleavage kobs at 2500 uM GlcN6P; higher = faster cleavage; RNA array
Summary of the method: as §1

glucosamine-6-phosphate [5] = variants of: B1; test: self-cleavage kobs at 10000 uM GlcN6P; higher = faster cleavage; RNA array
Summary of the method: as §1

Row | Variant | self-cleavage kobs at 40 uM GlcN6P (glucosamine-6-phosphate [1]) [s⁻¹] | self-cleavage kobs at 640 uM GlcN6P (glucosamine-6-phosphate [2]) [s⁻¹] | self-cleavage kobs at 160 uM GlcN6P (glucosamine-6-phosphate [3]) [s⁻¹] | self-cleavage kobs at 2500 uM GlcN6P (glucosamine-6-phosphate [4]) [s⁻¹] | self-cleavage kobs at 10000 uM GlcN6P (glucosamine-6-phosphate [5]) [s⁻¹]
1 | U55A U69A | 7.99e-05 ± 1.9e-05 | 9.88e-05 ± 1.9e-05 | 9.45e-05 ± 2.4e-05 | 7.93e-05 ± 1.3e-05 | 0.000129 ± 2.7e-05
2 | A1U U2G A3G A5U A14C U69C |  | 0.000257 ± 6e-05 | 5.02e-05 ± 1.8e-05 | 0.000526 ± 0.00012 | 
3 | G63U G66C | < 1e-05 |  | < 1e-05 | < 1e-05 | < 1e-05
4 | A53U U54G C71A | 9.49e-05 ± 2.8e-05 |  |  |  | 0.00478 ± 0.0013
5 | C58U C71U | < 1e-05 |  |  |  | 
6 | U55C C61U C68U | < 1e-05 |  |  |  | < 1e-05
7 | G63C C71A | < 1e-05 |  |  |  | < 1e-05
8 | G59C A64G | < 1e-05 | < 1e-05 |  |  | < 1e-05
9 | C61G A64C | < 1e-05 |  | < 1e-05 |  | < 1e-05
10 | C61A G63A | < 1e-05 | < 1e-05 | < 1e-05 | < 1e-05 | 
11 | A6C A33U C70A |  | < 1e-05 |  |  | 
12 | U57G G59A | < 1e-05 | < 1e-05 |  |  | 
13 | U55A G60U C67G | < 1e-05 | < 1e-05 |  | < 1e-05 | 
14 | G62A U65A | < 1e-05 | < 1e-05 | < 1e-05 | < 1e-05 | < 1e-05
15 | G59A C68U U69G | < 1e-05 |  |  |  | 
16 | U54C G59C | < 1e-05 | < 1e-05 | < 1e-05 | < 1e-05 | 
17 | G60U U65C | < 1e-05 | < 1e-05 | < 1e-05 | < 1e-05 | < 1e-05
18 | A53C C61G | < 1e-05 | < 1e-05 |  |  | < 1e-05
19 | U56G C61G | < 1e-05 |  |  |  | < 1e-05
20 | U55A U56G | 0.000292 ± 4.8e-05 | 0.00368 ± 0.00046 | 0.000454 ± 8.8e-05 | 0.00771 ± 0.0013 | 0.0097 ± 0.0019
21 | U57A C61U C70G | < 1e-05 | < 1e-05 |  |  | 
22 | A6C C11U G44U C68U C71U |  | < 1e-05 | < 1e-05 |  | 
23 | A53G G66U C67A | 7.95e-05 ± 1.9e-05 |  |  |  | 0.00186 ± 0.00059

Row | Variant | self-cleavage kobs at 40 uM GlcN6P (glucosamine-6-phosphate [1]) [s⁻¹] | self-cleavage kobs at 640 uM GlcN6P (glucosamine-6-phosphate [2]) [s⁻¹] | self-cleavage kobs at 160 uM GlcN6P (glucosamine-6-phosphate [3]) [s⁻¹] | self-cleavage kobs at 2500 uM GlcN6P (glucosamine-6-phosphate [4]) [s⁻¹] | self-cleavage kobs at 10000 uM GlcN6P (glucosamine-6-phosphate [5]) [s⁻¹]
24 | A53G G66A | 0.000617 ± 0.00011 | 0.00474 ± 0.0013 |  | 0.0128 ± 0.005 | 0.0293 ± 0.0075
25 | A64U C70G | < 1e-05 |  |  |  | 
26 | A72C | 0.000372 ± 7.3e-05 | 0.00257 ± 0.00043 |  | 0.00362 ± 0.00077 | 0.0121 ± 0.0021
27 | C58A G60A | < 1e-05 |  | < 1e-05 |  | < 1e-05
28 | G63C C67G | < 1e-05 |  |  |  | 
29 | U54C G60U C67U | < 1e-05 |  |  |  | < 1e-05
30 | A53C G66A | 0.000154 ± 2.2e-05 | 0.00107 ± 0.00017 | 0.000292 ± 6.4e-05 | 0.00288 ± 0.00047 | 0.00374 ± 0.00053
31 | A53C G59U C68G | < 1e-05 |  |  |  | 
32 | G60U C67A C68G | < 1e-05 |  |  |  | 
33 | G62C U65C | < 1e-05 | < 1e-05 | < 1e-05 | < 1e-05 | 
34 | C68U C70A C71U | < 1e-05 |  |  | < 1e-05 | < 1e-05
35 | G60U C71G | < 1e-05 | < 1e-05 | < 1e-05 | < 1e-05 | < 1e-05
36 | G63U U69C | < 1e-05 |  |  |  | < 1e-05
37 | A64G U69A | < 1e-05 | 3.36e-05 ± 1.6e-05 |  | 4.75e-05 ± 1.6e-05 | 7.42e-05 ± 1.3e-05
38 | A6C C8U |  | < 1e-05 | < 1e-05 | < 1e-05 | < 1e-05
39 | C67U C71G | 1.88e-05 ± 9.1e-06 | 4.78e-05 ± 5.4e-06 | 3.83e-05 ± 1.2e-05 | 0.00068 ± 0.00033 | 5.12e-05 ± 5.1e-06
40 | U54A C58U | < 1e-05 |  |  |  | 
41 | A64C C68G C70G | < 1e-05 | < 1e-05 |  | < 1e-05 | 
42 | A53U G63U | < 1e-05 | < 1e-05 | < 1e-05 |  | < 1e-05
43 | A6C C8A A39U G41C U65G C71A |  | < 1e-05 |  |  | 
44 | C70G | 0.000246 ± 5.2e-05 |  |  |  | 
45 | U56G U57A G59U G60A | < 1e-05 |  |  |  | < 1e-05
